{"source": "PubChem BioAssay AID902", "about": "(National Center for Advancing Translational Sciences (NCATS), 2007)", "note": "“And” between values parts separate entries of the source, which are not always exact repeats. Identical values can stand only once. Screen size: about 130,000 compounds; about 1,900 (1.5%) were called active. The inconclusive results got no clear call from the source; some entries with a clear call stand among them for comparison. Calls follow the shape of the dose curve; as a rule, active = well fitted cell-killing curve with a large enough effect; inconclusive = small, poorly fitted or top-dose-only effect; inactive = no such curve, though single readings can be large or run the other way. Potencies of inconclusive entries are doubtful fits and often do not repeat."}
{"assay": "qHTS Screen for Compounds that Selectively Target Cancer Cells with p53 Mutations: Cytotoxicity of p53ts Cells at the Nonpermissive Temperature; also: nearly all actives have a fitted effect of over 55% in size; also: potency is read from the fitted curve at half-maximal effect; tags tell the direction and shape of the fitted curve; as to activity change, negative = cell killing: % is scaled to controls: 0 for no effect and ±100 for the full control effect", "conditions": "H1299-p53A138V viability at 39C, ATP luminescence, 24 h; activity change, negative = cell killing: at 46.1 µM (top of the series)"}
{"compound": "Cc1ccc2[nH]cc(C(c3ccccc3)c3ccc(Cl)s3)c2c1", "note": "(stereo unspecified)", "Potency": "inconclusive: 20 µM [cytotoxic, single point]"}
{"compound": "O=C(NCc1ccccc1Cl)c1ccc2c(c1)NC(=O)C(CS(=O)(=O)Cc1ccc(Cl)cc1)N2", "note": "(stereo unspecified)", "Potency": "inconclusive: 12.6 µM [cytotoxic, single point]"}
{"compound": "Oc1ccc(NCc2ccccc2OCc2ccccc2)cc1", "Potency": "inconclusive: 20 µM [cytotoxic, single point]"}
{"compound": "Cc1ccc(Cl)cc1-n1c(SCC(=O)NCc2ccccc2)nc2n[nH]c(C)c2c1=N", "Potency": "inconclusive: 10 µM [cytotoxic, partial curve]"}
{"compound": "COc1ccc(S(=O)(=O)Nc2cccc(-c3ccc(N4CCCCC4)nn3)c2)cc1F", "Potency": "active: 12.6 µM"}
{"compound": "COc1cccc(Nc2nc3c(S(=O)(=O)c4cc(C)ccc4C)nnn3c3ccsc23)c1", "Potency": "inconclusive: 20 µM [cytotoxic, single point]"}
{"compound": "O=C1C=CC(=O)C2=C1C1c3ccccc3C2c2ccccc21", "Potency": "inconclusive: 15.8 µM [cytotoxic, single point]"}
{"compound": "Cc1ccc(NC(=O)N2CCN(Cc3nc4ccc(C)cc4o3)CC2)cc1", "Potency": "inconclusive: 35.5 µM [cytotoxic, single point]"}
{"compound": "CC(C)c1ccc2c(c1)c(SC(C)(C)C)c(CC(C)(C)C(=O)O)n2Cc1ccc(Cl)cc1", "Potency": "inconclusive: 20 µM [cytotoxic, single point] and inconclusive: 31.6 µM [cytotoxic, single point]"}
{"compound": "COc1ccc(CNC(=O)c2cc3cccc4c3n2CC(C)S4)cc1OC", "note": "(stereo unspecified)", "Potency": "inactive"}
{"compound": "COCCCn1c(SCC(=O)Nc2ccc(F)cc2)nc2c(sc3ccccc32)c1=O", "Potency": "inconclusive: 10 µM [cytotoxic, partial curve]"}
{"compound": "COC(=O)C(Cc1ccccc1)NC(=O)C(N)CC(=O)O", "note": "(stereo unspecified)", "Potency": "inactive"}
{"compound": "CCN(CC)S(=O)(=O)c1ccc(C(=O)NC2CC(=O)N(c3ccc(OC)c(OC)c3)C2)cc1", "note": "(stereo unspecified)", "Potency": "inconclusive: 0.02 µM [cytotoxic, full curve, poor fit]"}
{"compound": "CCOc1ccc2sc(NS(=O)(=O)c3ccc(OC)c(OC)c3)nc2c1", "Potency": "inactive"}
{"compound": "Cc1nn(-c2nc3ccccc3s2)c(C)c1Oc1ccccc1O", "Potency": "inconclusive: 10 µM [cytotoxic, partial curve]"}
{"compound": "Cc1ccc(Cl)cc1-n1ncc2c(Nc3ccc4c(c3)OCCO4)ncnc21", "Potency": "inactive"}
{"compound": "Cc1cccc(C)c1NC(=O)CCCn1c(=O)c2cccn2c2ccccc21", "Potency": "inconclusive: 31.6 µM [cytotoxic, single point]"}
{"compound": "Cn1nnnc1SCCCNCc1cc(Br)ccc1OCc1ccccc1F", "Potency": "inactive"}
{"compound": "c1ccc(NCc2nc3ccccc3n2CCOc2ccccc2)cc1", "Potency": "inconclusive: 7.94 µM [cytotoxic, partial curve]"}
{"compound": "Cc1c(/C=C/C(=O)c2ccc(Cl)s2)cnn1C", "Potency": "inactive"}
{"compound": "COc1ccc(NC(=O)Cn2c(=O)n(CC(=O)NCCc3ccccc3)c(=O)c3ccccc32)cc1", "Potency": "inactive"}
{"compound": "CCOc1ccc(-n2c(=O)c3c4c(sc3n(Cc3cccc(C)c3)c2=O)CCCC4)cc1", "Potency": "inconclusive: 1 µM [cytotoxic, full curve, poor fit]"}
{"compound": "CCC1CN(C(=O)Nc2cccc(OC)c2)c2ccccc2O1", "note": "(stereo unspecified)", "Potency": "inconclusive: 31.6 µM [cytotoxic, single point]"}
{"compound": "CSc1ccc2c(c1)N(CCC1CCCCN1C)c1ccccc1S2", "note": "(stereo unspecified)", "Potency": "active: 12.6 µM"}
{"compound": "COc1ccc(CN(Cc2ccco2)C(=O)c2ccccc2F)cc1", "Potency": "inactive"}
{"compound": "CC(C)CC(=O)Nc1ccc2oc(-c3cccnc3)nc2c1", "Potency": "inconclusive: 12.6 µM [cytotoxic, partial curve]"}
{"compound": "CC(C)(Sc1ccc(CCN(CCCCC2CCCCC2)C(=O)NC2CCCCC2)cc1)C(=O)O", "Potency": "inconclusive: 31.6 µM [cytotoxic, single point]"}
{"compound": "NCCNS(=O)(=O)c1cccc2cnccc12", "Potency": "inconclusive: 31.6 µM [cytotoxic, single point]"}
{"compound": "C=CCn1c(-c2cccs2)nc2nc3ccccc3nc21", "Potency": "inconclusive: 10 µM [cytotoxic, partial curve]"}
{"compound": "COc1ccc(N=c2oc3c(OC)cccc3cc2C(=O)NCc2ccco2)c(OC)c1", "Potency": "inactive"}
{"compound": "CC1CCc2nc(NC(=O)Cc3cccs3)sc2C1", "note": "(stereo unspecified)", "Potency": "inactive"}
{"compound": "COc1ccc(Cl)cc1Nc1ccc2cc(S(=O)(=O)N3CCCCC3)ccc2n1", "Potency": "inconclusive: 2.51 µM [cytotoxic, full curve, poor fit]"}
{"compound": "C=C(C)COc1ccc(-c2[nH]ncc2Oc2ccccc2OCC)c(O)c1", "Potency": "inconclusive: 25.1 µM [cytotoxic, single point]"}
{"compound": "O=C(CSc1ncc(-c2ccccc2)[nH]1)Nc1cccc(Br)c1", "Potency": "inconclusive: 10 µM [cytotoxic, single point]"}
{"compound": "Cc1ccc(-c2nnn3c2nc(NC2CCC(C)CC2)c2ccccc23)cc1", "note": "(stereo unspecified)", "Potency": "inconclusive: 3.98 µM [cytotoxic, partial curve, poor fit]"}
{"compound": "Nc1nc(=O)c2[nH]cnc2n1O", "activity change, negative = cell killing": "inactive: 4.19% [at 9.22 µM]"}
{"compound": "CCOc1ccc(CCNc2ncnc3onc(-c4ccc(Cl)cc4)c23)cc1", "Potency": "inactive"}
{"compound": "CCCCOC(=O)Nc1ccc(N2CCCCC2)cc1", "Potency": "inconclusive: 25.1 µM [cytotoxic, single point]"}
{"compound": "Cc1nn2c(=O)cc(COC(=O)c3ccc(NC(=O)COc4ccc(Cl)cc4)cc3)nc2s1", "Potency": "inactive"}
{"compound": "CCCCCn1c(CCCNC(=O)c2cccc(C)c2)nc2ccccc21", "Potency": "inconclusive: 31.6 µM [cytotoxic, single point]"}
{"compound": "CCc1nnc2c3ccccc3nc(Nc3ccccc3OC)n12", "Potency": "inactive"}
{"compound": "C/C(=N/NC1=NCCN1)c1cn(C2=NCCN2)nc1C", "activity change, negative = cell killing": "inactive: 1.44% [at 9.22 µM]"}
{"compound": "CCOc1ccc(C(=O)Nc2ccc(-c3nc4cc(C)ccc4o3)cc2)cc1", "Potency": "inactive"}
{"compound": "Cc1n[nH]c(C)c1CCc1nc2c3ccccc3nc(SCC(=O)Nc3ccc(F)cc3)n2n1", "Potency": "inconclusive: 25.1 µM [cytotoxic, partial curve]"}
{"compound": "COc1cccc(-c2nc3cc(C)ccc3o2)c1", "Potency": "inconclusive: 12.6 µM [cytotoxic, single point]"}
{"compound": "CCN(CC)c1ccc(NC(=O)c2ccc(Br)o2)cc1", "Potency": "inconclusive: 10 µM [cytotoxic, partial curve]"}
